Source: PubChem BioAssay AID1476 (National Center for Advancing Translational Sciences (NCATS), 2009)
In all, about 200,000 compounds went through this assay and about 4,500 (2.2%) were called active. This list was built around the results that the source calls inconclusive (neither active nor inactive); the mix of calls is not that of the screen. Calls come from the whole dose curve; as a rule, active = well fitted inhibition curve with a large enough effect; inconclusive = small, poorly fitted or top-dose-only effect, or effect the other way; inactive = flat fitted curve, though single readings scatter. Potencies beside an inconclusive call are fits to weak or partial responses and may not hold up.

molecular target: Cruzipain (Trypanosoma cruzi) (UniProt P25779); experiment: qHTS Assay for Promiscuous and Specific Inhibitors of Cruzain (without detergent); details: purified cruzain, Z-FR-AMC fluorescence, no detergent; note: nearly all actives have a fitted effect of over 40% in size;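 for max response, negative = inhibition: plate controls were enzyme without inhibitor for no effect and buffer without enzyme for full effect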
In short: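 Detergent-free condition (0.00005% Triton X-100) in acetate buffer pH 5.5 with DTT. 1.5 nM enzyme and compound were pre-mixed 15 min, then 2 uM Z-FR-AMC substrate added; reaction progress from fluorescence change between first and third reads (60 s).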
Potency is the fitted concentration of half-maximal effect; tags give direction and shape of the fitted curve.

UniProt P25779, sequence (P25779 whole entry, looked up): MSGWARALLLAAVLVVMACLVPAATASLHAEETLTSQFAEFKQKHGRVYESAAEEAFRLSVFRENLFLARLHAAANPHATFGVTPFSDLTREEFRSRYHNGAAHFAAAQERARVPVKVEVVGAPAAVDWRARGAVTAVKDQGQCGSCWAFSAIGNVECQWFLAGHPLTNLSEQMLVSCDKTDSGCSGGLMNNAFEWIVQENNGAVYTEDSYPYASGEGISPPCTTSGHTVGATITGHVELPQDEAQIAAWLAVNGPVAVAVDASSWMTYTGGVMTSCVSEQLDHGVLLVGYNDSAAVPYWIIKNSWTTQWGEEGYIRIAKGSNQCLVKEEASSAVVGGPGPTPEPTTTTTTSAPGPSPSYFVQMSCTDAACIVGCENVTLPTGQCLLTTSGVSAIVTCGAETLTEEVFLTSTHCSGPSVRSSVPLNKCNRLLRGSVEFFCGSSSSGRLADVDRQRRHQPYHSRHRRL

| Structure (SMILES) | Potency | max response, negative = inhibition |
| --- | --- | --- |
| COc1ccc(CC(=O)NCc2cn3ccsc3n2)cc1 | inconclusive: 31.6 µM [inhibitor, single point] |  |
| CCOC(=O)c1ccc(NC(=O)CN(c2ccc(C)cc2)S(=O)(=O)c2c(C)n[nH]c2C)cc1 | inconclusive: 31.6 µM [activator, single point] |  |
| COc1ccc(-c2nc(CCNC(=O)c3c(F)cccc3Cl)cs2)cc1 |  | inactive: -13.4% |
| CC1CCN(C(=O)Cn2cc(SCC(=O)Nc3ccccc3C(F)(F)F)c3ccccc32)CC1 |  | inactive: -1.51% |
| COc1cc2c(cc1OC)C(c1c[nH]c3ccccc13)NCC2 (configuration not stated) |  | inactive: 3.35% |
| CCOc1ccccc1NC(=O)C(OC(=O)c1ccccc1NS(=O)(=O)c1cccs1)c1ccccc1 (configuration not stated) | inconclusive: 25.1 µM [inhibitor, single point] |  |
| COc1cc(C(=O)Nc2cccc(OCc3cc(=O)n4cc(C)sc4n3)c2)cc(OC)c1OC | inconclusive: 12.6 µM [activator, partial curve] |  |
| CCOc1cc(/C=N/NC(=O)CSc2nncn2C)ccc1OCc1cccc(C)c1 | inconclusive: 39.8 µM [activator, single point] |  |
| O=C(Nc1ccc(Cl)c(Cl)c1)c1ccc(Cn2cc(Cl)cn2)cc1 | inconclusive: 31.6 µM [inhibitor, single point] |  |
| CCCCCn1c(N)c(-c2nc3ccccc3o2)c2c([N+](=O)[O-])nn(C)c(=O)c21 | inconclusive: 20 µM [inhibitor, single point] |  |
| Cc1ccc(C)c(NC(=O)CSc2nnc(-c3ccccc3)o2)c1 |  | inactive: -3.96% |
| COc1ccc(-c2cc(-c3c(O)c(OC)c4occc4c3OC)[nH]n2)cc1OC | inconclusive: 39.8 µM [activator, single point] |  |
| CC(C)N1CCN(c2ccc(OC[C@@H]3CO[C@@](Cn4cncn4)(c4ccc(Cl)cc4Cl)O3)cc2)CC1 |  | inactive: -3.54% |
| COc1ccc(-c2c(C#N)c(SCC(=O)Nc3ccc(C)cc3)nc(C)c2C(=O)Nc2ccccc2)cc1 |  | inactive: -17% |
| COc1ccc(-c2nnc(-c3ccc(Br)o3)o2)cc1OC | inconclusive: 31.6 µM [activator, single point] |  |
| CCCCCC(=O)Nc1nc(C)c(-c2csc(Nc3cc(Cl)ccc3C)n2)s1 | active: 10 µM |  |
| CS(=O)(=O)N1CCN(c2ccccc2NC(=O)c2ccc(-c3ccc(Br)cc3)o2)CC1 | active: 25.1 µM |  |
| O=C(CC1S/C(=N/N=C/c2cccs2)NC1=O)Nc1ccc(Cl)c(Cl)c1 (configuration not stated) | active: 20 µM |  |
| Cc1cc(C)cc(NC(=O)C2CCN(C(=O)c3cnn(-c4ccccc4)c3-n3cccc3)CC2)c1 | inconclusive: 39.8 µM [activator, single point] |  |
| CCc1ccc(S(=O)(=O)/N=C2/C=C(Sc3ncn[nH]3)C(=O)c3ccccc32)cc1 | active: 25.1 µM |  |
| C=CCN1CC(c2nc3ccccc3n2CCOc2ccccc2)CC1=O (configuration not stated) |  | inactive: 12.3% |

| Structure (SMILES) | Potency | max response, negative = inhibition |
| --- | --- | --- |
| CCc1ccccc1NC(=O)CSc1nc2n[nH]c(C)c2c(=N)n1-c1cccc(C)c1 | inconclusive: 39.8 µM [activator, single point] |  |
| COc1ccccc1CNc1ccc(-c2nc(-c3ccccc3C)no2)cc1[N+](=O)[O-] | inconclusive: 5.01 µM [inhibitor, single point] |  |
| Cc1ccc2oc(=O)c3cnn(CC(=O)NCCc4ccsc4)c3c2c1 | inconclusive: 39.8 µM [inhibitor, single point] |  |
| CCCCCCC(=O)Nc1nc(C)c(-c2csc(Nc3ccccc3OC)n2)s1 | active: 10 µM |  |
| Cc1c(Cl)cccc1N1C(=O)C(N2C(=O)c3cccc([N+](=O)[O-])c3C2=O)C1c1cccs1 (configuration not stated) | inconclusive: 39.8 µM [inhibitor, single point] |  |
| Nc1ccc(C(=O)n2c3ccccc3c3ccccc32)cc1 | active: 25.1 µM |  |
| CCC(C)n1c(-c2cc(OC)c(OC)c(OC)c2)nc2nc3ccccc3nc21 (configuration not stated) | inconclusive: 31.6 µM [activator, single point] |  |
| CC1CCN(c2ccc(-c3cccc(NS(=O)(=O)c4cccs4)c3)nn2)CC1 | inconclusive: 39.8 µM [inhibitor, single point] |  |
| Cc1ccc2c(c1)cc1c(=O)n(CC(=O)NC(C)CCc3ccccc3)nc(C)n12 (configuration not stated) |  | inactive: -4.62% |
| CCOc1ccc(C(=O)NC(=S)Nc2ccccn2)cc1[N+](=O)[O-] | inconclusive: 39.8 µM [inhibitor, single point] |  |
| COc1ccc(CCNC(=O)c2c[nH]n3c(=O)c(Cc4ccccc4Cl)c(C)nc23)cc1OC | inconclusive: 39.8 µM [activator, single point] |  |
| CCn1c2c(c(=O)n3ncc(C(=O)Nc4ccc(OC(F)(F)F)cc4)c13)CN(Cc1ccc(OC)cc1)CC2 | inconclusive: 25.1 µM [activator, single point] |  |
| CN(C)c1ccc(NC(=S)NC(=O)/C=C/c2ccc(Cl)cc2)cc1 | active: 5.01 µM |  |
| COc1ccc(CCNC(=O)c2cnc3sc(N4CCOCC4)nn3c2=O)cc1OC |  | inactive: -9.84% |
| COc1ccc(OCc2ccc(-c3nc(C#N)c(N4CCC(C(N)=O)CC4)o3)o2)cc1 | inconclusive: 39.8 µM [activator, single point] |  |
| Cc1ccc(CNC(=O)c2nnn(Cc3ccc(F)cc3)c2N)cc1 |  | inactive: 12.2% |
| CC(=O)N1CCN(c2cc(N3CCc4ccccc4C3)c(F)cc2[N+](=O)[O-])CC1 | inconclusive: 31.6 µM [activator, single point] |  |
| COc1ccc(C2c3c(n(C)c4ccccc34)C(=O)N2CC(=O)Nc2ccccc2Cl)cc1 (configuration not stated) | inconclusive: 25.1 µM [inhibitor, single point] |  |
| O=C(c1ccc(Nc2nc3ccccc3n3nnnc23)cc1)N1CCN(c2ccc(F)cc2)CC1 |  | inactive: -6.72% |
| Cc1cc(C)n(CCOC(=O)C2C(C=C(Cl)Cl)C2(C)C)n1 (configuration not stated) | inconclusive: 25.1 µM [activator, single point] |  |
| CCCN(C(=O)c1cc2c(=O)n(CC)c3ccccc3c2s1)c1ccccc1F | inconclusive: 7.94 µM [activator, single point] |  |
